Source: patent EP0369391A2, “N-substituted amides” (BOEHRINGER INGELHEIM PHARMACEUTICALS INC., priority 1988, dated 1990)

Key:
Human Thrombin = Human Thrombin (Homo sapiens, UniProt P00734); test: Selectivity assay: Human Thrombin; assay type: biochemical; conditions: IC50 of 5 or greater is considered inactive
[1] = molecular target: Recombitant HIV Proteinase (Human immunodeficiency virus type 1 group M subtype B, UniProt P04585); test: Selectivity assay: HIV proteinase; assay type: biochemical; conditions: IC50 of 5 or greater is considered inactive

For `CC(C)C(NC(=O)CN(C(=O)[C@@H](NC(=O)c1ccc(C(=O)NS(=O)(=O)c2ccc(Cl)cc2)cc1)C(C)C)C1Cc2ccccc2C1)C(=O)C(F)(F)F` (some centres unmarked) [Compound of Table III], the IC50 (Human Thrombin) was greater than 6.55 µM and the IC50 [1] was 164 µM.
